# Laboratory results published in PubChem BioAssay AID1631 (National Center for Advancing Translational Sciences (NCATS), 2009).
# Hit rate of the full screen: of about 260,000 compounds, about 890 (0.34%) were called active. Inconclusive means that the source gave no clear call. Such entries were picked first, then a sample of the others. The call rests on the fitted dose curve; in most records, active means well fitted activation curve with a large enough effect; inconclusive means small, poorly fitted or top-dose-only effect; inactive means no such curve, though single readings can be large or run the other way. No potency is given beside an inconclusive call; the fits are too rough.
# Biological target: Pyruvate kinase PKM (Homo sapiens) (UniProt P14618)
# Sequence of UniProt P14618 (P14618 whole entry, looked up, canonical isoform): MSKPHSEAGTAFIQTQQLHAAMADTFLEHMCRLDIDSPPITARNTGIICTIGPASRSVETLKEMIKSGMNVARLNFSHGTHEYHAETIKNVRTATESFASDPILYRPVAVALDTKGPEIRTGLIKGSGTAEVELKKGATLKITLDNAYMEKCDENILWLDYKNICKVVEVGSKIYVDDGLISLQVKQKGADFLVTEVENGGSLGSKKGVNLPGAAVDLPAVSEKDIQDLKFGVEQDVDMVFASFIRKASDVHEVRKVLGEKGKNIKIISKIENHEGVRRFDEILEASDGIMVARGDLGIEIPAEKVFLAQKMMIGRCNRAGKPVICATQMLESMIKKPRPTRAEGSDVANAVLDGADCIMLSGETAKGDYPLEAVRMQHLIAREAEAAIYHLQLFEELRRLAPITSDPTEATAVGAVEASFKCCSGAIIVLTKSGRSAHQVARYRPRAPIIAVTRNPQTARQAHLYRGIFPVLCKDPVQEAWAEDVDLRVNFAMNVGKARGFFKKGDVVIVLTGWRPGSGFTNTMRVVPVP
# Test: qHTS Assay for Activators of Human Muscle isoform 2 Pyruvate Kinase; further: nearly all actives have a fitted effect of over 55% in size
# Conditions: purified PKM2, Kinase-Glo ATP luminescence; Potency: activation; activation: at 57.5 µM (top of the series), 0% is enzyme alone, no compound
# In short: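 Purified hPK-M2 (>95% pure) converted ADP (0.1 mM final) to ATP with 0.5 mM PEP in 50 mM imidazole pH7.2, KCl, MgCl2, Tween 20, BSA; 1 h at room temperature. ATP detected by Kinase-Glo luminescence.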
# On the % scale 0 is the no-effect control and ±100 the full control effect; potency means the concentration at half of the fitted maximal effect; tags describe the fitted curve by direction and shape.
Compound,Potency,activation
CCCn1c(SCC(=O)NC(=O)NCc2ccco2)n[nH]c1=O,"inconclusive [rising, partial curve]",–
Cc1cccc(CSc2nn3c(=O)c(C)nnc3s2)c1,active: 10 µM,–
Cc1c(Cl)cccc1Nc1nc(N)nc(CSc2nc3ccccc3s2)n1,–,inactive: 6.28%
CNC(=S)N1CCN(S(=O)(=O)c2ccc3ccccc3c2)CC1,active: 20 µM,–
CC(C)(C)c1ccc(O)c(N)c1,"inconclusive [rising, partial curve]",–
CCN(CC)c1ccc(C2C(C(=O)OCCOC)=C(C)NC3=C2C(=O)CC(C)(C)C3)cc1 (stereo not given),"inconclusive [rising, single point]",–
Cc1ccc(-c2nn(-c3ccccc3)cc2/C=C2\SC(=S)N(CC(=O)O)C2=O)cc1,"inconclusive [rising, single point]",–
Cc1cnc(-c2nnc(N(C)C(=O)C3CCOC3)s2)cn1 (stereo not given),–,inactive: -9.86%
Cn1c(Cc2cccc3ccccc23)nnc1SCC(=O)N1CCN(c2ccccc2)CC1,"inconclusive [rising, partial curve]",–
COc1cccc(OC)c1NC(=O)CN(C)S(=O)(=O)c1ccc2c(c1)OCCO2,–,inactive: 0.871%
COC(=O)[C@@]1(Cc2ccc(F)cc2)[C@H]2c3cc(C(=O)N4CCCC4)n(CCc4ccc(O)c(O)c4)c3C[C@H]2CN1C(=O)c1ccccc1,"inconclusive [rising, full curve]",–
O=C(C[n+]1ccc(C(=O)N/N=C/c2ccc(OCc3ccccc3)cc2)cc1)c1ccccc1,–,inactive: -15.7%
COc1ccc(C(=O)NC(=S)Nc2ccc(S(=O)(=O)Nc3cc(OC)nc(OC)n3)cc2)cc1,–,inactive: -0.399%
CC1(C)CC2(CCCN3C(=O)CSC32)CCS1 (stereo not given),"inconclusive [rising, single point]",–
COc1cc(NC(=S)NC(=O)c2ccccc2C)ccc1NC(=O)c1cccs1,–,inactive: -0.0816%
CC1=C(C(=O)OCc2ccccc2)C(c2cccc(F)c2)NC(=O)N1 (stereo not given),"inconclusive [rising, single point]",–
COc1ccccc1C(=O)Nc1ncc2c(n1)CC(c1ccco1)CC2=O (stereo not given),"inconclusive [rising, single point]",–
COCCSc1nnc(NC(=O)Cc2ccc(OC)cc2)s1,"inconclusive [rising, single point]",–
CCN1CCN(CC(=O)Nc2cc3c(cc2C(C)=O)OCO3)CC1,"inconclusive [rising, single point]",–
Cn1c(=O)c(C(=O)COC(=O)c2cc(-c3ccco3)nc3ccccc23)c(N)n(CC2CC2)c1=O,"inconclusive [rising, partial curve]",–
